Consider 27 compounds from the antibiotic and cytotoxicity screens of Wong et al. (2023).

The test system of one assay is HSkMC. The assay can be described thus: cytotoxicity call (relative viability < 0.9). The following applies: 10 µM.
Another assay relates to HepG2. Nature of the assay: cytotoxicity call (relative viability < 0.9). The following applies: 10 µM.
Another assay deals with S. aureus RN4220. Nature of the assay: growth inhibition call (relative growth <= 0.2). The following applies: 50 µM.

The other results are listed elsewhere or left out.

With `C=CCOC(=O)[C@@H]1[C@H]2C(=O)O[C@H](c3ccccc3)[C@H](c3ccccc3)N2[C@H](c2ccc(OCCOC(=O)[C@H]3C[C@H]4C(=O)NCC(=O)N4[C@H]3c3cccc(OCCO)c3)cc2)[C@@]12C(=O)Nc1ccccc12`, the cytotoxicity call with HSkMC and in the assay with HepG2 was “inactive” each time. Also, the growth inhibition call in the assay with S. aureus RN4220 was “inactive”.

On to `Cn1cncc1C(=O)O`, for which the cytotoxicity call with HSkMC and in the assay with HepG2 was “inactive” in each case. For the same compound, the growth inhibition call with S. aureus RN4220 is “inactive”.

In the case of `Cc1ccc(S[C@]2(C(=O)NCC(F)(F)F)CC(=O)N(Cc3ccccc3)[C@@H]2c2ccc(CO)cc2I)cc1`, the cytotoxicity call in the assay with HSkMC and with HepG2 was “inactive” in each case. Besides, the growth inhibition call in the assay on S. aureus RN4220 is “inactive”.

As to `CO/N=[N+](\[O-])N1CCCC1`, the cytotoxicity call in the assay with HSkMC and with HepG2 was “inactive” each time. Besides, the growth inhibition call with S. aureus RN4220 is “inactive”.

For `C[C@H]1CN([C@@H](C)CO)C(=O)c2cc(C3=CCCC3)cnc2O[C@@H]1CN(C)S(=O)(=O)c1cn(C)cn1`, the cytotoxicity call in the assay with HSkMC and in the assay on HepG2 was “inactive” throughout. For the same compound, the growth inhibition call in the assay with S. aureus RN4220 was “inactive”.

Turning to `C[C@@H]1CN([C@H](C)CO)C(=O)c2cc(/C=C/c3ccccc3)cnc2O[C@@H]1CN(C)C(=O)CN1CCOCC1`, the cytotoxicity call with HSkMC and with HepG2 was “inactive” in each case. Besides, in the assay on S. aureus RN4220, the growth inhibition call is “inactive”.

In the case of `C[C@H](CO)N1C[C@H](C)[C@H](CN(C)Cc2ccc(Oc3ccccc3)cc2)Oc2ccc(NC(=O)C3CCCCC3)cc2C1=O`, the cytotoxicity call with HSkMC and with HepG2 was “inactive” throughout. In addition, in the assay with S. aureus RN4220, the growth inhibition call was “inactive”.

With `Cc1ccc(S(=O)(=O)Nc2ccc3c(c2)C(=O)N([C@H](C)CO)C[C@@H](C)[C@@H](CN(C)Cc2ccc(C(F)(F)F)cc2)O3)cc1`, the cytotoxicity call in the assay with HSkMC and with HepG2 was “active” throughout. Further, the growth inhibition call in the assay with S. aureus RN4220 was “inactive”.

Take `C[C@@H]1CCCCO[C@H](CN(C)S(=O)(=O)c2cn(C)cn2)[C@H](C)CN([C@H](C)CO)C(=O)c2cc(N(C)C)ccc2O1`: the cytotoxicity call in the assay on HSkMC and in the assay with HepG2 was “inactive” each time. In addition, in the assay with S. aureus RN4220, the growth inhibition call is “inactive”.

Turning to `O=C(C[C@@H]1CC[C@@H]2[C@H](COC[C@H](O)CN2S(=O)(=O)c2ccccc2F)O1)N1CCC(Cc2ccccc2)CC1`, the cytotoxicity call in the assay on HSkMC and with HepG2 was “inactive” each time. Further, the growth inhibition call with S. aureus RN4220 is “inactive”.

As to `CN1C(=O)C[C@@H](C(=O)N[C@@H](Cc2cnc[nH]2)C(=O)N2CCC[C@H]2C(N)=O)NC1=O`, the cytotoxicity call in the assay on HSkMC and in the assay on HepG2 was “inactive” each time. Further, in the assay on S. aureus RN4220, the growth inhibition call is “inactive”.

In the case of `C[C@@H]1CN([C@H](C)CO)C(=O)c2ccccc2-c2ccccc2CO[C@@H]1CN(C)C(=O)Nc1cccc(F)c1`, the cytotoxicity call in the assay with HSkMC and in the assay on HepG2 was “inactive” in each case. Besides, in the assay with S. aureus RN4220, the growth inhibition call was “inactive”.

For `C[C@@H]1CCCCO[C@@H](CN(C)S(=O)(=O)c2cn(C)cn2)[C@@H](C)CN([C@@H](C)CO)C(=O)c2cc(N(C)C)ccc2O1`, the cytotoxicity call in the assay with HSkMC and with HepG2 was “inactive” each time. In addition, in the assay on S. aureus RN4220, the growth inhibition call is “inactive”.

Turning to `COc1ccc(NC(=O)N(C)C[C@H]2OCCCC[C@@H](C)Oc3ccc(NC(=O)Nc4ccc5c(c4)OCO5)cc3C(=O)N([C@H](C)CO)C[C@H]2C)cc1`, the cytotoxicity call in the assay with HSkMC and in the assay on HepG2 was “inactive” throughout. In addition, in the assay on S. aureus RN4220, the growth inhibition call is “inactive”.

As to `C[C@H](CO)N1C[C@H](C)[C@@H](CN(C)Cc2ccc(Cl)c(Cl)c2)Oc2ccc(NC(=O)Nc3ccccc3)cc2CC1=O`, the cytotoxicity call in the assay with HSkMC and in the assay with HepG2 was “inactive” in each case. In addition, the growth inhibition call with S. aureus RN4220 is “inactive”.

With `C=CCN1C(=O)[C@@]2(O[C@@H](CCn3cc([C@H](O)c4ccccc4)nn3)[C@H]([Si](C)(C)c3ccc(OC)cc3)[C@H]2C)c2cc(N3C(=O)c4cccc5cccc3c45)ccc21`, the cytotoxicity call with HSkMC and in the assay with HepG2 was “inactive” each time. Moreover, the growth inhibition call in the assay with S. aureus RN4220 is “inactive”.

Consider `CC(=O)N[C@@H](CCC(N)=O)C(=O)O`, for which the cytotoxicity call in the assay on HSkMC and with HepG2 was “inactive” throughout. Further, the growth inhibition call in the assay on S. aureus RN4220 is “inactive”.

Turning to `CCC1=C(C)CN(C(=O)NCCc2ccc(S(=O)(=O)NC(=O)NC3CCC(C)CC3)cc2)C1=O` (stereo unspecified), the cytotoxicity call with HSkMC and in the assay with HepG2 was “inactive” in each case. Further, the growth inhibition call with S. aureus RN4220 was “inactive”.

With `C[C@H](CO)N1C[C@H](C)[C@H](CN(C)C(=O)C2CCCCC2)OCCCC[C@H](C)Oc2ccc(NC(=O)CCC(F)(F)F)cc2C1=O`, the cytotoxicity call in the assay on HSkMC and with HepG2 was “inactive” each time. The growth inhibition call in the assay on S. aureus RN4220 was “inactive”.

For `C[C@H](CO)N1C[C@H](C)[C@@H](CN(C)C(=O)Nc2cccc3ccccc23)Oc2c(NC(=O)c3nc4ccccc4s3)cccc2C1=O`, the cytotoxicity call in the assay on HSkMC and with HepG2 was “active” in each case. Further, the growth inhibition call in the assay with S. aureus RN4220 was “inactive”.

Regarding `C[C@@H]1CN([C@H](C)CO)C(=O)c2ccccc2-c2ccccc2CO[C@H]1CN(C)C(=O)c1cc(Cl)cc(Cl)c1`, the cytotoxicity call in the assay on HSkMC and in the assay with HepG2 was “inactive” throughout. For the same compound, the growth inhibition call with S. aureus RN4220 is “inactive”.

As for `COc1ccc(S(=O)(=O)N(C)C[C@@H]2OCCCC[C@H](C)Oc3ccc(NC(=O)c4ccccc4)cc3C(=O)N([C@H](C)CO)C[C@H]2C)cc1`, the cytotoxicity call in the assay with HSkMC and in the assay on HepG2 was “inactive” throughout. The growth inhibition call with S. aureus RN4220 was “inactive”.

Regarding `CN(C)CC(=O)N[C@H]1C=C[C@@H](CC(=O)NCCN2CCCCC2)O[C@H]1CO`, the cytotoxicity call in the assay with HSkMC and in the assay with HepG2 was “inactive” each time. Besides, in the assay with S. aureus RN4220, the growth inhibition call was “inactive”.

Take `C[C@H](CO)N1C[C@H](C)[C@@H](CN(C)Cc2ccc3c(c2)OCO3)Oc2c(NS(=O)(=O)c3cn(C)cn3)cccc2C1=O`: the cytotoxicity call in the assay on HSkMC and with HepG2 was “inactive” each time. In addition, in the assay with S. aureus RN4220, the growth inhibition call was “inactive”.

As to `CCN1CCN(C(=O)CN2C(=O)c3ccccc3S2(=O)=O)CC1`, the cytotoxicity call in the assay with HSkMC and in the assay on HepG2 was “inactive” in each case. Also, the growth inhibition call with S. aureus RN4220 was “inactive”.

`CO[C@H](CN(C)S(=O)(=O)c1ccc(F)cc1)[C@H](C)CN([C@H](C)CO)S(=O)(=O)c1cccc(Cl)c1`: the cytotoxicity call with HSkMC and with HepG2 was “inactive” throughout. The growth inhibition call in the assay with S. aureus RN4220 is “inactive”.

On to `CS(=O)(=O)N1C[C@@H]2COC[C@@]2(CN2CCOCC2)C1`, for which the cytotoxicity call in the assay on HSkMC (human skeletal muscle cells) and with HepG2 was “inactive” in each case. Also, the growth inhibition call with S. aureus RN4220 was “inactive”.
